Experimental data from PubChem BioAssay AID588855 (National Center for Advancing Translational Sciences (NCATS), 2011).
About 5,000 (1.2%) of roughly 410,000 compounds were called active. Inconclusive results, whose numbers are uncertain, are shown with a selection of clear calls. Calls come from the whole dose curve; as a rule, active = well fitted inhibition curve with a large enough effect; inconclusive = small, poorly fitted or top-dose-only effect; inactive = no such curve, though single readings can be large or run the other way. A potency beside an inconclusive call is a rough fit, not a confirmed value.

Assay: qHTS for Inhibitors of TGF-b; note: nearly all actives have a fitted effect of over 65% in size
Settings: HepG2 CAGA-GFP TGF-b/SMAD3 reporter, GFP fluorescence, 18 h, TGF-beta stimulated, 500 pg/mL final; series mostly up to 46.1 µM; activity, negative = inhibition: at the top concentration
Method in brief: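 Using HEPG2 CAGA-GFP reporter cells at 1000 cells/well, we pinned test compounds, stimulated with recombinant TGF-beta (500 pg/mL final) and measured total well GFP after 18 h.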
% is set by controls: 0 for no effect and ±100 for the full control effect; potency is the fitted concentration of half-maximal effect; tags give direction and shape of the fitted curve.

Row | Compound | activity, negative = inhibition | Potency
1 | COc1ccc(CCNC(=O)c2ccc(CNS(=O)(=O)c3ccc(C(C)(C)C)cc3)cc2)cc1OC | inactive: 0.505% | –
2 | Cc1cccc2cc(/C=C3\N=C(c4ccccc4)OC3=O)c(N3CCOCC3)nc12 | – | inconclusive: 15.8 µM [inhibitor, single point]
3 | O=C(NC1CCN(Cc2ccccc2)CC1)c1ccc(Cn2c(=O)c3ccccc3n(Cc3ccc(F)cc3)c2=O)cc1 | – | inconclusive: 3.98 µM [inhibitor, full curve, poor fit]
4 | CCOc1ccc(-n2c(C)nc3cc(C(=O)NCc4ccc5c(c4)OCO5)ccc32)cc1 | – | inconclusive: 11.2 µM [inhibitor, partial curve]
5 | CCc1cccc(CC)c1NC(=O)CN1C2CCCC1CC(NC(=O)Nc1cccc(OC)c1)C2 (stereo not drawn) | inactive: -13.7% | –
6 | O=C1N/C(=C/c2ccc(N3CCOCC3)o2)C(=O)N1c1ccccc1 | – | inconclusive: 35.5 µM [inhibitor, partial curve, poor fit]
7 | CCOC(=O)c1c(C)[nH]c(N=Nc2ccc(C)cc2)c1C | – | inconclusive: 35.5 µM [inhibitor, single point]
8 | O=C(COC(=O)c1cccnc1Cl)Nc1cc(S(=O)(=O)N2CCCCC2)ccc1Cl | – | inconclusive: 0.112 µM [inhibitor, full curve, poor fit]
9 | CCCn1c(NC(=O)c2ccco2)nc2ccccc21 | inactive: -7.15% | –
10 | Cc1ccc(SC(c2ccccc2)C(Cn2cncn2)C(=O)c2ccccc2)cc1 (stereo not drawn) | – | inconclusive: 6.31 µM [inhibitor, single point]
11 | Cc1ccc2c(Cl)c(C(=O)N/N=C/c3cccn3C)sc2c1 | inactive: -35.9% | –
12 | O=c1[nH]nc(Cc2ccc([N+](=O)[O-])cc2)c2ccccc12 | – | inconclusive: 3.55 µM [inhibitor, single point]
13 | CCOC(=O)C1(CCOc2ccccc2)CCN(Cc2ccc(OC)c(COC)c2)CC1 | – | inconclusive: 10 µM [inhibitor, partial curve]
14 | Cc1nn2c(COc3ccc(NC(=O)c4ccccc4)cc3)nnc2c2ccccc12 | – | inconclusive: 5.01 µM [inhibitor, full curve, poor fit]
15 | COc1ccc(CNC(=O)Nc2ccc(C)cc2C)cc1 | inactive: 0.323% | –
16 | Cc1c(C)n(CC(O)CNc2ccccc2)c2ccccc12 (stereo not drawn) | – | inconclusive: 35.5 µM [inhibitor, single point]
17 | COc1ccccc1NC(=O)c1cc2c(C)nn(-c3ccccc3)c2s1 | inactive: 8.98% | –
18 | CC/C(=N/NC(=O)c1ccccc1O)c1c(C)[nH]n(-c2ccccc2)c1=O | – | inconclusive: 25.1 µM [inhibitor, single point]
19 | COc1ccc(NC2CCCN(C(=O)c3ccccc3N3CCOCC3)C2)cc1OC (stereo not drawn) | – | inconclusive: 3.55 µM [inhibitor, single point]
20 | Cc1cccc(OCC(=O)NC(=S)Nc2ccccc2N2CCOCC2)c1C | inactive: 1.06% | –
21 | Cc1ccc(-n2nnnc2C(Cl)c2nnnn2-c2ccc(C)cc2)cc1 | – | inconclusive: 35.5 µM [inhibitor, single point]
22 | O=[N+]([O-])c1cncn1CCN1CCOCC1 | inactive: 2.35% | –
23 | Cc1ccc(NC(=S)NNC(=O)c2ccco2)cc1 | – | inconclusive: 35.5 µM [inhibitor, single point]

Row | Compound | activity, negative = inhibition | Potency
24 | Cn1c(=O)c2c(nc(SCC(=O)c3cccs3)n2Cc2ccc(F)cc2)n(C)c1=O | – | inconclusive: 4.47 µM [inhibitor, partial curve, poor fit]
25 | COC(=O)c1ccc(CSc2nc3c([nH]c4ccccc43)c(=O)n2-c2cccc(Cl)c2)o1 | inactive: -5.98% | –
26 | CCOC(=O)C1CCCN(C(=O)Cn2ncc3c4ccccc4n(Cc4ccccc4)c3c2=O)C1 (stereo not drawn) | inactive: -23.4% | –
27 | CCN(CC)S(=O)(=O)c1ccc2c(c1)nc(CN(C)C(=O)Nc1ccc(C)c(F)c1)n2C | – | inconclusive: 35.5 µM [inhibitor, single point]
28 | O=C(OCC1CCCO1)c1ccc2c(c1)N(Cc1ccccc1)C(=O)c1ccccc1S2(=O)=O (stereo not drawn) | – | inconclusive: 35.5 µM [inhibitor, single point]
29 | CN(C)C(=O)N1CCc2ccc([N+](=O)[O-])cc21 | – | inconclusive: 35.5 µM [inhibitor, single point]
30 | O=S(=O)(/N=S1/CC=CCN1S(=O)(=O)c1ccccc1)c1ccccc1 (stereo not drawn) | – | inconclusive: 15.8 µM [inhibitor, single point]
31 | CCCn1cc(S(=O)(=O)c2ccc(Cl)cc2)c(=O)c2cc(OC)ccc21 | inactive: 20% | –
32 | CC(=O)c1ccc(NC(=S)NCc2ccc(Cl)cc2Cl)cc1 | – | inconclusive: 35.5 µM [inhibitor, single point]
33 | CC(=O)c1cccc(NC(=O)CSc2nnc(C(C)N(C)C)n2Cc2ccccc2)c1 (stereo not drawn) | inactive: -0.781% | –
34 | COCCN1C(=S)NC(c2cccc(C(F)(F)F)c2)C(C(=O)N2CCOCC2)=C1C (stereo not drawn) | inactive: 17% | –
35 | COc1ccccc1CN(C)C(=O)c1cccc(S(=O)(=O)N2CCc3ccccc3C2)c1 | – | inconclusive: 7.08 µM [inhibitor, partial curve]
36 | Cc1ccc(NC(=O)C(=O)NCc2ccc(/C=C(/C#N)C(=O)NCc3cccnc3)o2)cc1C | inactive: 0.4% | –
37 | Cc1ccc(C(=O)Nc2ccccc2)cc1S(=O)(=O)Nc1ccccc1 | – | inconclusive: 10 µM [inhibitor, partial curve, poor fit]
38 | Cc1ccc(NC(=O)C2CCC(CNS(=O)(=O)c3cccc4nsnc34)CC2)c(Cl)c1 (stereo not drawn) | inactive: -5.55% | –
39 | Oc1ccccc1C1=Nc2ncnn2C(c2ccccc2)C1 (stereo not drawn) | – | inconclusive: 28.2 µM [inhibitor, single point]
40 | COc1ccc2c(c1)c(/C=N/Nc1nc3ccccc3[nH]1)c(C)n2C | – | inconclusive: 35.5 µM [inhibitor, single point]
41 | COc1ccc(CCNC(=O)CCCn2nc(C)c3sc4ccccc4c3c2=O)c(OC)c1 | inactive: 14.2% | –
42 | CC(=O)/C=C/c1ccc2ccccc2n1 | – | inconclusive: 35.5 µM [inhibitor, single point]
43 | O=C(Nc1ccc(Nc2ccccc2)cc1)C(Cl)Cl | – | active: 12.6 µM
44 | O=C(COC(=O)C1=COCCO1)Nc1cccc(Oc2ccccc2)c1 | – | inconclusive: 17.8 µM [inhibitor, single point]
45 | CCOc1ccc(NC(=O)c2ccc(Cn3nc(C)cc3C)o2)cc1 | – | inconclusive: 35.5 µM [inhibitor, single point]
46 | CCOc1ccc(-c2cc(CCCC(=O)NCCc3cc(OC)c(OC)c(OC)c3)no2)cc1 | – | inconclusive: 7.94 µM [inhibitor, partial curve, poor fit]

Row | Compound | activity, negative = inhibition | Potency
47 | C=CCC[C@H](Cc1ccc(F)cc1)C(=O)OC[C@@H](C)NC(=O)[C@@H](CC=C)CC(=O)N[C@H](CO)Cc1ccccc1 | – | inconclusive: 22.4 µM [inhibitor, single point]
48 | O=C(O)CSc1nc2ccccc2n1-c1ccccc1 | inactive: -5.44% | –
49 | COc1ccc(C(=O)Oc2c(Sc3ccc(C)cc3)c(C)nn2C(C)(C)C)cc1OC | – | inconclusive: 3.55 µM [inhibitor, single point]
50 | CNC[C@H]1OCCCC[C@H](C)Oc2ccc(NC(=O)CCCN(C)C)cc2C(=O)N([C@H](C)CO)C[C@@H]1C | inactive: -2.3% | –
51 | O=C(c1ccc2c(c1)N(Cc1ccc(Cl)cc1)C(=O)c1ccccc1S2=O)N1CCCCC1 (stereo not drawn) | – | inconclusive: 1.41 µM [inhibitor, partial curve]
52 | CN(/N=C/c1ccc(Cl)cc1)c1ncc(Cl)cc1C(F)(F)F | – | inconclusive: 35.5 µM [inhibitor, partial curve, poor fit]
53 | CCC(=O)c1cn(/C(=C\C(=O)OC(C)(C)C)CCC(OC)OC)cc1CC | inactive: 9.45% | –
54 | O=C(CSc1c2c(nc3ccccc13)CCCC2)NCc1ccco1 | inactive: -15.7% | –
55 | Cc1ccc(C(=O)NC2(C(F)(F)F)N=C(c3ccccc3)N(Cc3ccccc3)C2=O)cc1 (stereo not drawn) | inactive: -2.03% | –
56 | COC(=O)C1=CN(CC2CCCO2)C=C(C(=O)OC)C1c1ccsc1 (stereo not drawn) | inactive: -2.82% | –
57 | CCn1c2ccccc2c2nnc(SCC(=O)NC(CC(C)C)C(=O)OC)nc21 (stereo not drawn) | – | inconclusive: 6.31 µM [inhibitor, single point]
58 | CCOC(=O)C1(CCOc2ccccc2)CCN(Cc2ccccc2O)CC1 | inactive: -4.11% | –
59 | COc1ccc(CCNc2ncnc3c2[nH]c2cc(OC)c(OC)cc23)cc1OC | – | inconclusive: 35.5 µM [inhibitor, single point]
60 | Cc1c(C(c2ccc([N+](=O)[O-])cc2)c2c(C)n(C)n(-c3ccccc3)c2=O)c(=O)n(-c2ccccc2)n1C | – | inconclusive: 35.5 µM [inhibitor, single point]
61 | CC(C)(C)c1cc(-c2nc(N)nc(N)n2)c(O)c(C(C)(C)C)c1 | – | inconclusive: 35.5 µM [inhibitor, single point]
62 | CCn1c([N+](=O)[O-])nc2c1c(=O)[nH]c(=O)n2C | – | active: 10 µM
63 | CCCc1nc2ccccc2c(C(=O)OC(C)C(=O)NCc2ccc3c(c2)OCO3)c1CC (stereo not drawn) | – | inconclusive: 35.5 µM [inhibitor, single point]
64 | O=C1/C(=C/c2ccccc2O)SC(=S)N1Cc1cccnc1 | – | inconclusive: 2.24 µM [inhibitor, full curve, poor fit]
65 | CCN(CC)S(=O)(=O)c1ccc(Oc2ccc(S(=O)(=O)N(CC)CC)cc2)cc1 | inactive: -9.76% | –
66 | Nc1nnnn1/N=C/C(Br)=C/c1ccccc1 | – | active: 3.55 µM
67 | CCOc1cc(C)ccc1OCc1nnc(SCC(=O)c2cccc([N+](=O)[O-])c2)n1C | – | inconclusive: 3.55 µM [inhibitor, partial curve, poor fit]
68 | CC1(c2ccc(Cl)cc2)CC(C)(C)N(C(=O)c2cccc(F)c2)c2ccccc21 (stereo not drawn) | – | inconclusive: 12.6 µM [inhibitor, partial curve]
